15 sequences from the supplement of paper PMC7826260 can be followed below.

The other results are listed elsewhere or left out. The data describe in vitro nicking of single-stranded DNA by Rep domains (1 h at 37 °C, 3 µM enzyme); the outer parts of the 90-letter strands are left off. A value is the log2 ratio of uncut reads to the pool without enzyme; strong cutting gives strongly negative numbers. There is no active / inactive call. Shares of all reads are compared, so uncut sequences can rise above 0 when many others are cut.

Holding throughout (assay): uncleaved DNA left, log2 of reads against the no-enzyme library (log2 ratio); higher = less cleavage (more negative = more Rep cleavage of the k-mer); sequences stand for … in CTCGTCCG…ACCGGAGA
For test [1], the system named is T1, Rep nickase domain of Muscovy duck circovirus.
T1 sequence (protein, residues 1-111, tag omitted): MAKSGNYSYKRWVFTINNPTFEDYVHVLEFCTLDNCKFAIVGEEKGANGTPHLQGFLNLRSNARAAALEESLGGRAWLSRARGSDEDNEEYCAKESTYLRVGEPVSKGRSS
As to the method:
(§1)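 A pool of 90-nt single-stranded DNAs with seven random bases just before the constant AC of the nick site (name = the seven bases) was cut by 3 µM recombinant His6-SUMO-tagged Rep nickase domain (300 nM DNA, 50 mM HEPES pH 8.0, 50 mM NaCl, 1 mM MnCl2, 1 h, 37 °C, three replicates). Uncut DNA was amplified and sequenced.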

For test [2], the system named is T2, Rep nickase domain of banana bunchy top virus.
T2 sequence (protein, residues 1-94, tag omitted): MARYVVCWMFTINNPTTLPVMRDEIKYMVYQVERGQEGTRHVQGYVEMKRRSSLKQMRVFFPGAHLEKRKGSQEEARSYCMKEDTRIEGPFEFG
As to the method:
as §1

The test system of test [3] is T3, Rep nickase domain of cabbage leaf curl virus.
T3 sequence (protein, residues 1-116, tag omitted): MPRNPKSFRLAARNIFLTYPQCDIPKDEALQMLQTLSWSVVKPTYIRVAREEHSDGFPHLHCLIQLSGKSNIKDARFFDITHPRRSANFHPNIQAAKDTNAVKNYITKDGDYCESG
As to the method: as §1
The test system of test [4] is T4, Rep nickase domain of chickpea chlorotic dwarf virus.
T4 sequence (protein, residues 1-124, tag omitted): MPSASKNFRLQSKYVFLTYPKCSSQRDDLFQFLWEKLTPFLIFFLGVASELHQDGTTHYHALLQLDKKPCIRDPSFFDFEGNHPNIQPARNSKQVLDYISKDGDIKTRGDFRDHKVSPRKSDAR
As to the method: as §1
For test [5], the system named is T5, Rep nickase domain of faba bean necrotic yellows virus.
T5 sequence (protein, residues 1-98, tag omitted): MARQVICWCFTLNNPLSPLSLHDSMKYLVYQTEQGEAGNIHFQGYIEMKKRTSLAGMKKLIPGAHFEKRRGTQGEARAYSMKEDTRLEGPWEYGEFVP
As to the method: as §1
In test [6] the test system is T6, Rep nickase domain of maize striate mosaic virus.
T6 sequence (protein, residues 1-117, tag omitted): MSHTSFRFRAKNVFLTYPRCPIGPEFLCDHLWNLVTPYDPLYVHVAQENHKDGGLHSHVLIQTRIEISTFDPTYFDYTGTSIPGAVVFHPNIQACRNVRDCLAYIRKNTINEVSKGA
As to the method: as §1
Test [7] has as its system T7, Rep nickase domain of porcine circovirus 2.
T7 sequence (protein, residues 2-116, tag omitted): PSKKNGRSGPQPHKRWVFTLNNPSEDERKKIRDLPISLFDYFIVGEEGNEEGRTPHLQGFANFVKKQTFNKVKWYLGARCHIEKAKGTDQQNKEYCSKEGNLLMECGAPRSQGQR
As to the method:
as §1

Test [8] relates to T8, Rep nickase domain of tomato golden mosaic virus.
T8 sequence (protein, residues 1-124, tag omitted): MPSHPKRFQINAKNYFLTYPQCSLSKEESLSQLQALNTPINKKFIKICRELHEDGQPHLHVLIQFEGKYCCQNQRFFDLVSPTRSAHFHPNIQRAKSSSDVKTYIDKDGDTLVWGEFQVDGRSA
As to the method: as §1
The test system of test [9] is T9, Rep nickase domain of tomato yellow leaf curl virus.
T9 sequence (protein, residues 1-136, tag omitted): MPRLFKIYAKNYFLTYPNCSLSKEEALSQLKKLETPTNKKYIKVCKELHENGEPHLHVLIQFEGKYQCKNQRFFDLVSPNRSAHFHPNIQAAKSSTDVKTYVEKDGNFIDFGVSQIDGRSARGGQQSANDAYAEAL
As to the method: as §1
Test [10] relates to T10, Rep nickase domain of wheat dwarf virus.
T10 sequence (protein, residues 1-137, tag omitted): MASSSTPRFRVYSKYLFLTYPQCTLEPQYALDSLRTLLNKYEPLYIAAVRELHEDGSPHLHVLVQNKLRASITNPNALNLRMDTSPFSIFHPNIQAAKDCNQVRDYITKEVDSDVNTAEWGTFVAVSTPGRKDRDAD
As to the method: as §1

As to AAAAAAT, the “uncleaved DNA left (log2)” value in test [1] is -0.115; in test [2], -0.0454; in test [3] it was -1.49; in [4], -2.5; in [5] it was -0.0475; in test [6], -0.392. The “uncleaved DNA left (log2)” value was -1.06 in [7], -0.0726 in [8], -0.224 in test [9] and -0.45 in [10].

For the sequence CGAAGTA, the “uncleaved DNA left (log2)” value in [1] was -0.00727; in test [2], 0.1; in test [3] it was 0.0658; in test [4], -0.45; in [5], 0.0466; in test [6], -0.107. Further, the “uncleaved DNA left (log2)” value was 0.0548 in [7], 0.0644 in [8], -0.0122 in [9] and -0.0174 in test [10].

Regarding CGGCTCG, the “uncleaved DNA left (log2)” value in [1] was -0.00701; in test [2], 0.184; in [3] it was -0.0546; in test [4], 0.171; in test [5], 0.0675; in test [6], 0.159. In addition, the “uncleaved DNA left (log2)” value in [7] is 0.0981; in test [8] it was 0.115; in test [9], -0.0377; in test [10] it was 0.144.

With ATGCAAC, the “uncleaved DNA left (log2)” value in test [1] was -0.0609; in test [2], -0.0781; in test [3] it was -0.0576; in test [4], -1.16; in [5], -0.0254; in test [6] it was -0.805. Also, the “uncleaved DNA left (log2)” value in test [7] was -0.0587; in test [8], -0.115; in [9], -0.0559; in test [10], -0.08.

With GCCAGCG, the “uncleaved DNA left (log2)” value in test [1] is -0.178; in test [2], -0.0725; in [3] it was -0.642; in [4], 0.814; in [5] it was 0.0174; in [6] it was -0.24. Besides, the “uncleaved DNA left (log2)” value in [7] was 0.025; in test [8], -0.0803; in [9] it was -0.159; in [10] it was -0.192.

Regarding GCAAGTA, the “uncleaved DNA left (log2)” value in [1] is 0.128; in test [2] it was 0.0604; in [3] it was 0.133; in test [4] it was -0.316; in [5] it was 0.186; in test [6] it was -0.157. Further, the “uncleaved DNA left (log2)” value in [7] turned out to be 0.083; in [8] it was 0.132; in test [9] it was 0.129; in test [10], 0.0411.

For GTCGGGT, the “uncleaved DNA left (log2)” value in test [1] is 0.0433; in test [2] it was -0.099; in test [3], 0.222; in test [4], 0.73; in [5], -0.0213; in [6], 1.5. Also, the “uncleaved DNA left (log2)” value in [7] was -0.0186; in test [8], -0.00306; in test [9] it was 0.0875; in [10], -0.0126.

As for AGGACTT, the “uncleaved DNA left (log2)” value in [1] was 0.0286; in test [2], 0.145; in test [3], 0.554; in test [4], 1.62; in test [5] it was -0.00702; in [6] it was 2.15. The “uncleaved DNA left (log2)” value in test [7] stood at 0.0193; in test [8] it was 0.0148; in [9], 0.0173; in test [10], 0.231.

In the case of ACAGATG, the “uncleaved DNA left (log2)” value was 0.136 in [1]; 0.06 in [2]; -0.251 in [3]; -0.00444 in [4]; 0.215 in [5]; -0.539 in test [6]. Also, the “uncleaved DNA left (log2)” value is 0.292 in test [7], 0.144 in test [8], 0.108 in test [9] and 0.0256 in [10].

For TTAAACC, the “uncleaved DNA left (log2)” value was 0.0357 in test [1]; 0.0374 in test [2]; 0.16 in [3]; -0.827 in test [4]; 0.00305 in test [5]; -0.346 in test [6]. In addition, the “uncleaved DNA left (log2)” value in [7] is -0.715; in [8], 0.0575; in test [9] it was 0.0563; in [10] it was 0.0974.

In the case of GGCTATA, the “uncleaved DNA left (log2)” value in [1] was -0.0458; in test [2], 0.0395; in test [3], 0.441; in test [4], 0.976; in test [5], 0.0899; in test [6] it was 1.75. Further, the “uncleaved DNA left (log2)” value in test [7] came out at 0.0555; in test [8], 0.03; in test [9] it was 0.044; in test [10] it was 0.197.

Take GAGATCC: the “uncleaved DNA left (log2)” value in [1] was 0.0241; in test [2], -0.0172; in test [3], 0.333; in [4], 0.826; in [5] it was -0.0316; in [6], 1.24. For the same sequence, the “uncleaved DNA left (log2)” value in test [7] turned out to be 0.00863; in test [8], 0.00485; in test [9], 0.0652; in test [10], 0.088.

Regarding AGATCGT, the “uncleaved DNA left (log2)” value in test [1] is -0.0379; in test [2], 0.02; in [3] it was -0.0628; in [4] it was -0.356; in [5], 0.0327; in test [6], -0.81. Moreover, the “uncleaved DNA left (log2)” value is -0.262 in [7], -0.099 in test [8], -0.142 in test [9] and -0.065 in test [10].

Turning to AGAACAG, the “uncleaved DNA left (log2)” value in test [1] is 0.0061; in [2], 0.0336; in test [3], -0.271; in [4], -0.285; in test [5], 0.00149; in test [6], -0.56. Moreover, the “uncleaved DNA left (log2)” value in [7] was found to be 0.187; in test [8], 0.00921; in test [9], 0.0857; in test [10], 0.0792.

As for CGCGCCG, the “uncleaved DNA left (log2)” value is 0.0628 in test [1]; -0.132 in test [2]; -0.563 in [3]; -0.376 in test [4]; -0.044 in test [5]; -0.561 in [6]. The “uncleaved DNA left (log2)” value in test [7] is 0.0845; in test [8] it was -0.203; in [9], -0.134; in [10], -0.0921.
